Laboratory results as given in PubChem BioAssay AID485294 (National Center for Advancing Translational Sciences (NCATS), 2010).
Hit rate of the full screen: of about 370,000 compounds, about 150 (0.041%) were called active. The shares of active, inactive and inconclusive entries below differ from those in the screen. Calls follow the shape of the dose curve; as a rule, active = well fitted inhibition curve with a large enough effect; inconclusive = small, poorly fitted or top-dose-only effect; inactive = flat fitted curve, though single readings scatter. No potency is given beside an inconclusive call; the fits are too rough.

Each compound was assayed against Beta-lactamase (Escherichia coli (strain K12)) (UniProt P00811) (assay: qHTS Inhibitors of AmpC Beta-Lactamase (assay with detergent)). Settings: AmpC hydrolysis of nitrocefin, absorbance 480 nm, 0.01% Triton; activity change, negative = inhibition: at 114 µM (top of the series).
Chain of UniProt P00811 (P00811 whole entry, looked up): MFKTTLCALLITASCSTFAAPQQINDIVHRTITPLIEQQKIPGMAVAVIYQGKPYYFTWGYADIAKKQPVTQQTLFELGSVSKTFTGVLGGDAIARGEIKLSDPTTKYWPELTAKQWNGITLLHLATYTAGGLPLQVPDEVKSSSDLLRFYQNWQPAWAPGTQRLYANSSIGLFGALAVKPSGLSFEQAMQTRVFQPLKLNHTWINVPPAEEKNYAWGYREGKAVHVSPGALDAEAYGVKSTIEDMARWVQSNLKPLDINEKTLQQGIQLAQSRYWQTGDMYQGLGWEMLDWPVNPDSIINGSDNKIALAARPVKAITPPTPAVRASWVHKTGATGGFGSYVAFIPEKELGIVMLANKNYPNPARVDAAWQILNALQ
How it was run: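 20 mM phosphate pH 7.0 + 0.01% (detergent screen) or 0.0001% Triton X-100; 5.3 nM AmpC reagent; cpd preinc 15 min RT; nitrocefin (800 uM stock) to start; A480 q20 s × 4 min; Activity was normalised to no-enzyme and no-compound control wells.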
Also: nearly all actives have a fitted effect of over 25% in size.
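For activity change, negative = inhibition in this document: 0% = no-compound wells and -100% = no-enzyme wells.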
Potency is read from the fitted curve at half-maximal effect; tags tell the direction and shape of the fitted curve.

| Structure (SMILES) | Potency | activity change, negative = inhibition |
| --- | --- | --- |
| O=C(NC1(C(F)(F)F)NC(=O)N(Cc2ccccc2)C1=O)c1cccnc1 (centres undefined) | inconclusive [inhibitor, full curve] |  |
| N#Cc1cnn(-c2ccccc2)c1NC(=O)CN1CCN(c2ccccc2)CC1 | inconclusive [inhibitor, partial curve, poor fit] |  |
| Cc1onc(-c2c(Cl)cccc2Cl)c1C(=O)NC(=S)N1CCOCC1 |  | inactive: -7.07% |
| CCOc1ccc(C(=O)N2CCCC(c3nc(-c4cccs4)no3)C2)cc1 (centres undefined) | inconclusive [inhibitor, partial curve] |  |
| Cn1nnnc1SCC(=O)Nc1ccc(Oc2ccccc2)cc1 |  | inactive: -9.66% |
| CC1C2(C)OCC(C#N)(C(=N)O2)C1(C#N)C#N (centres undefined) |  | inactive: 8.24% |
| Cc1cc(-c2ccc(C(C)C)c(S(=O)(=O)Nc3ccccn3)c2)on1 |  | inactive: 2.88% |
| Cc1cccc(OCC(=O)Nc2cccc(-c3nnc(-c4ccccc4)o3)c2)c1C | inconclusive [inhibitor, full curve, poor fit] |  |
| O=C(Nc1ccc(S(=O)(=O)NC2CCCC2)cc1)c1cnccn1 | inconclusive [inhibitor, single point] |  |
| C=CCN(CC=C)CCOc1ccc(OC(C)C)cc1 | inconclusive [inhibitor, full curve] |  |
| COc1ccc(C(=O)NCC(c2ccc3c(c2)OCO3)N2CCN(c3ccccc3F)CC2)cc1 (centres undefined) |  | inactive: 7.66% |
| COc1cc(/C(C)=N/N2CCN(Cc3ccc(C)cc3)CC2)ccc1O | inconclusive [inhibitor, partial curve, poor fit] |  |
| COc1ccc(-c2[nH]c(-c3ccccc3)nc2SCC(=O)Nc2nccs2)cc1 | inconclusive [inhibitor, partial curve] |  |
| Cc1ccc(N/C=C/C(=O)c2cccs2)cc1 | inconclusive [inhibitor, full curve, poor fit] |  |
| CCOC(=O)CNC(=O)CSc1ncnc2c1cnn2-c1ccc(C)cc1 | inconclusive [inhibitor, full curve, poor fit] |  |
| O=C(Nc1ccc(C(=O)N2CCOCC2)cc1)c1cccc(Br)c1 |  | inactive: 0.975% |
| C/C(=C\C(=S)Nc1ccccc1)Nc1ccc2ccccc2c1 | inconclusive [inhibitor, partial curve] |  |
| CCOC(=O)/C=C/C(=O)Nc1ccccc1-c1ccccc1NC(=O)/C=C/C(=O)OCC | inconclusive [inhibitor, partial curve] |  |
| Clc1ccc(-c2cn3cc(Br)ccc3n2)cc1Cl | inconclusive [inhibitor, single point] |  |
| COc1ccccc1CN=C1Nc2ccccc2CS1 | inconclusive [inhibitor, single point] |  |
| CC(NCc1ccc(S(N)(=O)=O)cc1)C(=O)NCc1ccccc1 (centres undefined) | inconclusive [inhibitor, full curve, poor fit] |  |
| CCC(C)NC(=O)CS(=O)Cc1nc(-c2ccccc2C)oc1C (centres undefined) | inconclusive [inhibitor, full curve, poor fit] |  |

| Structure (SMILES) | Potency | activity change, negative = inhibition |
| --- | --- | --- |
| Cc1ccc(C)c2[nH]c(=O)c(C(c3nnnn3Cc3ccco3)N3CCc4ccccc4C3)cc12 (centres undefined) |  | inactive: -1.82% |
| O=C(CSCc1ccccc1)NC1CCSC1=O (centres undefined) | inconclusive [inhibitor, single point] |  |
| O=C(CSc1nnc(C2CC2)n1-c1ccccc1)NCc1ccco1 |  | inactive: -9.01% |
| CCOc1ccc(-c2nnc(SCC(=O)Nc3cccc(OC)c3)nc2-c2ccc(OCC)cc2)cc1 |  | inactive: -6.21% |
| COc1cc(C)c(Cl)cc1S(=O)(=O)n1cnc(C)c1 | inconclusive [inhibitor, full curve, poor fit] |  |
| CC(=O)n1cc(-c2ccncc2)c2ccccc21 | inconclusive [inhibitor, full curve, poor fit] |  |
| CCOC(=O)CN(C(=O)Cn1nnc2ccccc21)C(C(=O)NCCOC)c1ccccc1C (centres undefined) | inconclusive [inhibitor, partial curve] |  |
| Cc1ccc(CN2CC(C(=O)Nc3cc(C)ccn3)CC2=O)cc1 (centres undefined) | inconclusive [inhibitor, full curve] |  |
| Cc1nc(SCC(=O)NCc2ccco2)c2oc3ccccc3c2n1 | inconclusive [inhibitor, full curve, poor fit] |  |
| C=CCn1c(SCc2cccc(F)c2)nc2cc(C(=O)N3CCC(C(N)=O)CC3)ccc2c1=O | inconclusive [inhibitor, full curve] |  |
| CCOc1cc(C(=O)O)cc(Cl)c1OC | inconclusive [inhibitor, single point] |  |
| CN(C)S(=O)(=O)Nc1ccc2c(c1)OCO2 | inconclusive [inhibitor, full curve, poor fit] |  |
| CC(=O)c1cccc(NC(=O)COC(=O)c2ccccc2C)c1 | inconclusive [inhibitor, full curve, poor fit] |  |
| CCn1c(=O)cc(SCC(=O)NCc2cccc(Cl)c2)c2ccccc21 | inconclusive [inhibitor, single point] |  |
| CCCNS(=O)(=O)c1cc2c3c(c1)CCN3C(=O)CC2 | inconclusive [inhibitor, full curve, poor fit] |  |
| N#Cc1ccccc1S(=O)(=O)N1CCN(C(=O)[C@H](Cc2ccccc2)NC(=O)c2ccco2)CC1 | inconclusive [inhibitor, full curve, poor fit] |  |
| Cc1c(Cl)cccc1NC(=O)c1ccc2c(c1)CCCN2S(C)(=O)=O |  | inactive: 5.71% |
| CC(C)c1ccc(OCC(=O)NCCS(=O)(=O)N2CCN(c3ccc(F)cc3)CC2)cc1 |  | inactive: 17.9% |
| CC(C)c1ccc(OCc2nnc(SCC(=O)N3CCCCC3)o2)cc1 |  | inactive: 4.2% |
| CCOC(=O)C1=C(C)NC(=O)C(C#N)C1c1ccncc1 (centres undefined) | inconclusive [inhibitor, partial curve] |  |
| CC1=NN=C(c2ccc(N)cc2)c2cc3c(cc2C1)OCO3 |  | inactive: -2.71% |
| CC(C)(C)OC(=O)N1CCC(c2c(C(=O)NCCN3CCc4ccccc4C3)cnn2-c2ccc(F)cc2)CC1 |  | inactive: -4.16% |
